The results in this text go back to paper PMC5892938.

The list shows a part of the results. At the low end of the ranking the order means little.

For this assay, the target named is GST-SBP-SLBP (stem-loop binding protein) (UniProt Q14493). Description: targeted RNA Bind-n-Seq.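 Also: DESeq read counts versus GST-SBP nonspecific binding control pulldown.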 As to conditions: RBNS binding buffer: 25 mM Tris pH 7.5, 150 mM KCl, 3 mM MgCl2, 0.1% Tween, 0.5 mg/mL BSA, 1 mM DTT; 27 nM protein, 750 pM RNA pool; temperature not stated; high values mean tight binding.
For the sequence “GGUCACGUCUCAAUCAACUCAUUCCCCAGGGAAAGCCCUGGUUAAUUCAACAGCUCGCAGUCAAG”, the binding signal (log2 fold change) is -0.153.
Turning to “GGUCACGUCUCAAUCAACUCUUUAGAGGGGGGGAAAACCCCUUUACCCUCAUCAUCAACAGCUCGCAGUCAAG”, the binding signal (log2 fold change) is 0.223.
With “GGUCACGUCUCAAUCAACUCAUCCCCCAGGGAAAACCCUGGCAUAUUCAACAGCUCGCAGUCAAG”, the binding signal (log2 fold change) was -0.0869.
Regarding “GGUCACGUCUCAAUCAACUCAAUUUCAGGAGUUUACUCCUGCUUAGUCAACAGCUCGCAGUCAAG”, the binding signal (log2 fold change) stood at 0.0418.
With “GGUCACGUCUCAAUCAACUCUAUUCCAGGAGUUUUCUCCUGCUAAUUCAACAGCUCGCAGUCAAG”, the binding signal (log2 fold change) amounted to 0.0919.
Turning to “GGUCACGUCUCAAUCAACUCUAGUCCCAGGGAAAUCCCUGGUAAUUUCAACAGCUCGCAGUCAAG”, the binding signal (log2 fold change) was -0.0756.
For “GGUCACGUCUCAAUCAACUCUAUCCCCAGGGAAACCCCUGGUAAAUUCAACAGCUCGCAGUCAAG” the value was -0.0402; for “GGUCACGUCUCAAUCAACUCAUCGUCAGGAGUUUGCUCCUGCUAUUUCAACAGCUCGCAGUCAAG”, 0.0112; for “GGUCACGUCUCAAUCAACUCUACUCCCAGGGAAACCCCUGGUUAUUUCAACAGCUCGCAGUCAAG”, 0.226.
As for “GGUCACGUCUCAAUCAACUCAAGUCCAGGAGUUUUCUCCUGCAUAUUCAACAGCUCGCAGUCAAG”, the binding signal (log2 fold change) is 0.0783.
For “GGUCACGUCUCAAUCAACUCUUUCUCAGGAGUUUUCUCCUGCAAUCUCAACAGCUCGCAGUCAAG” the value was 0.0902; for “GGUCACGUCUCAAUCAACUCUUUUUCCAGGGAAAACCCUGGCUUUCUCAACAGCUCGCAGUCAAG”, 0.0617.
Regarding “GGUCACGUCUCAAUCAACUCACUAGAGGGGGGGAAAACCCCUUUGCCCUCAAAUUCAACAGCUCGCAGUCAAG”, the binding signal (log2 fold change) is -0.299.
With “GGUCACGUCUCAAUCAACUCUAUCUCAGGAGUUUACUCCUGUUAACUCAACAGCUCGCAGUCAAG”, the binding signal (log2 fold change) was -0.0213.
Regarding “GGUCACGUCUCAAUCAACUCAAUCCCAGGAGUUUCCUCCUGCUUACUCAACAGCUCGCAGUCAAG”, the binding signal (log2 fold change) is -0.00384.
As for “GGUCACGUCUCAAUCAACUCAUUCCCCAGGGAAAACCCUGGCUAACUCAACAGCUCGCAGUCAAG”, the figure is 0.097; as for “GGUCACGUCUCAAUCAACUCAUCUCCAGGAGUUUUCUCCUGCAUAUUCAACAGCUCGCAGUCAAG”, 0.095.
As for “GGUCACGUCUCAAUCAACUCAUCUCCCAGGGAAAGCCCUGGUAAUUUCAACAGCUCGCAGUCAAG”, the figure is -0.147; as for “GGUCACGUCUCAAUCAACUCUUCGUCCAGGGAAAACCCUGGUAAUCUCAACAGCUCGCAGUCAAG”, -0.0145.
Regarding “GGUCACGUCUCAAUCAACUCAUCUUCCAGGGAAAACCCUGGUUAUCUCAACAGCUCGCAGUCAAG”, the binding signal (log2 fold change) is -0.0285.
Regarding “GGUCACGUCUCAAUCAACUCAUUCCCAGGAGUUUACUCCUGCAUUCUCAACAGCUCGCAGUCAAG”, the binding signal (log2 fold change) is -0.0336.
In the case of “GGUCACGUCUCAAUCAACUCCCCAGAGGGGGGGAAAACCCCUUUACCCUCCAAUUCAACAGCUCGCAGUCAAG”, the binding signal (log2 fold change) is -0.296.
“GGUCACGUCUCAAUCAACUCAUUCUCCAGGGAAAUCCCUGGCUAAUUCAACAGCUCGCAGUCAAG”: the binding signal (log2 fold change) worked out at 0.264.
Turning to “GGUCACGUCUCAAUCAACUCUAUUUCCAGGGAAAUCCCUGGCUAACUCAACAGCUCGCAGUCAAG”, the binding signal (log2 fold change) is 0.335.
Consider “GGUCACGUCUCAAUCAACUCUUUUUCCAGGGAAAGCCCUGGCAUUUUCAACAGCUCGCAGUCAAG”, for which the binding signal (log2 fold change) is -0.0811.
On to “GGUCACGUCUCAAUCAACUCUUUUUCCAGGGAAAGCCCUGGCAAUGUCAACAGCUCGCAGUCAAG”, for which the binding signal (log2 fold change) is -0.083.
Take “GGUCACGUCUCAAUCAACUCAAUCUCAGGAGUUUACUCCUGUUAACUCAACAGCUCGCAGUCAAG”: the binding signal (log2 fold change) was -0.0146.
Turning to “GGUCACGUCUCAAUCAACUCAAUCCCCAGGGAAAUCCCUGGCAAUUUCAACAGCUCGCAGUCAAG”, the binding signal (log2 fold change) is -0.0196.
As for “GGUCACGUCUCAAUCAACUCAUCCCCCAGGGAAACCCCUGGUUAUUUCAACAGCUCGCAGUCAAG”, the binding signal (log2 fold change) came to 0.114.
For the sequence “GGUCACGUCUCAAUCAACUCUUCUCCCAGGGAAAGCCCUGGUUUUCUCAACAGCUCGCAGUCAAG”, the binding signal (log2 fold change) is -0.00976.
With “GGUCACGUCUCAAUCAACUCUAUCCCAGGAGUUUUCUCCUGUAAUUUCAACAGCUCGCAGUCAAG”, the binding signal (log2 fold change) is -0.238.
For “GGUCACGUCUCAAUCAACUCUUCUUCAGGAGUUUCCUCCUGUUUUUUCAACAGCUCGCAGUCAAG” the value was 0.0572; for “GGUCACGUCUCAAUCAACUCUAUUCCCAGGGAAACCCCUGGCUAAUUCAACAGCUCGCAGUCAAG”, 0.00567; for “GGUCACGUCUCAAUCAACUCUUCCUCCAGGGAAACCCCUGGCAAUCUCAACAGCUCGCAGUCAAG”, 0.0245.
As to “GGUCACGUCUCAAUCAACUCUUCUCCCAGGGAAAUCCCUGGCAAACUCAACAGCUCGCAGUCAAG”, the binding signal (log2 fold change) was -0.137.
Consider “GGUCACGUCUCAAUCAACUCCUUAGAGGGGGGGAAAACCCCUUUGCCCUCCAUAUCAACAGCUCGCAGUCAAG”, for which the binding signal (log2 fold change) was -0.162.
With “GGUCACGUCUCAAUCAACUCAACUCCAGGAGUUUGCUCCUGCAAUUUCAACAGCUCGCAGUCAAG”, the binding signal (log2 fold change) came to 0.0411.
